From PubChem BioAssay AID1918934 (Molecular Pharmacology Branch, DTP, NCI, 2023)
Some entries of the source have several records that differ or are many. The other results are left out here. An entry can have further records. The records of an entry are repeats across runs, samples, wells, individuals or studies.

Test system: 292921-168-R-J2-PDC complex spheroid viability
Assay: Anticancer human tumor 292921-168-R-J2-PDC patient-derived pancreatic carcinoma cell line growth inhibition
Details: combination with iadademstat, compound alone
Description: Multicellular complex tumor spheroid response to LSD1 Inhibitor Iadademstat in combination with a variety of drugs and investigational agents in selected tumor cell lines
The current study was undertaken to assess response to LSD1 inhibitors in combination with standard-of-care drugs and investigational agents in solid tumor complex spheroid models as well as in the K-562 leukemia. Complex spheroids include a stromal component modeled by human endothelial cells (HUVEC) and fibroblasts modeled by human mesenchymal stem cells (MSCs). The concentration ranges selected for each drug and investigational agent were based upon clinically achievable concentrations if the clinical Cmax of the agent was known.
Compounds. The drugs and investigational agents used in this study are listed on Table 1. All of the agents used, including staurosporine (NSC755774) and gemcitabine (NSC613327), were obtained from the Developmental Therapeutics Program, NCI. FDA-approved anticancer drugs are available from the NCI at http://dtp.nci.nih.gov/branches/dscb/oncology_drugset_explanation.html. Drugs and investigational agents were >95% pure by proton nuclear magnetic resonance (NMR) and liquid chromatography/mass spectrometry (LC/MS). […] If the clinical Cmax for an agent had not been determined, the highest concentration tested was 10 microM. […]
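Further: seven day compound exposure before luminescent viability read.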

Compound | IC50 (run of 02/15/2022) | IC50 (run of 02/21/2022)
NC1CCC(NC2CC2c2ccccc2)CC1 (configuration not stated) | 8.62 µM, > 10 µM, 9.29 µM, 3.47 µM, 9.04 µM, 5 µM | –
NC1CC1c1ccc(-c2cccc(O)c2)cc1 (configuration not stated) | – | > 10 µM, 6.96 µM, 8.98 µM, 7.96 µM, 9.66 µM
